Reference: PubChem BioAssay (NCATS)
The shares of active, inactive and inconclusive entries below differ from those in the screen. No potency is given beside an inconclusive call; the fits are too rough. The source made the active and inactive calls. Calls follow the shape of the dose curve; as a rule, active = well fitted curve in the direction sought with a large enough effect; inconclusive = small, poorly fitted or top-dose-only effect, or another doubt; inactive = no such curve, though single readings can be large; an effect the other way counts as inactive or inconclusive.
Potency is read from the fitted curve at half-maximal effect; tags tell the direction and shape of the fitted curve.

Experiment: qHTS for Inhibitors of Plasmodium falciparum (HB3) proliferation (AID 504318); also: nearly all actives have a fitted effect of over 60% in size
Conditions: P. falciparum HB3 in erythrocytes, SYBR Green DNA, 72 h; series mostly up to 7.21 µM
How it was run: (§1)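 Erythrocytes infected with P. falciparum line (0.3% parasitemia, 2.5% hematocrit final) incubated with compounds 72 h at 37 °C, 5% CO2; SYBR Green lysis buffer added, fluorescence read next day. Normalized to 0.29 uM artemisinin and DMSO.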
In the case of `C[C@@H]1NC(=O)[C@@H](C)COC(=O)[C@H](C)NC(=O)[C@@H](C)COC1=O`, the Potency is reported as “inactive”.
With `CC(=O)C1=C(C)N(CC#C[Si](C)(C)C)C(=O)N(C(C)=O)C1c1ccccc1` (stereo not given) the Potency was “inactive”.
In the case of `COc1ccc(COC(=O)NN=C2C[C@@H](O)[C@@H](O)[C@@H]3[C@H]4C(=O)N(C[C@@H]5CCCO5)C(=O)[C@@H]4CC[C@@H]23)cc1`, the Potency is reported as inconclusive [inhibitor, single point].
For `COC(=O)NC(CCc1ccccc1)C(C(=O)OC)C(=O)OC` (stereo not given), the Potency was “inactive”.
In the case of `COCCN1C(=NCCc2cccnc2)NC(c2ccccc2)C(C(=O)OC)=C1C` (stereo not given), the Potency is reported as “inactive”.
In the case of `COc1ccc(-c2cnnc(CCCn3ccnc3-c3ccccc3)n2)cc1`, the Potency is reported as inconclusive [inhibitor, partial curve].
With `CCC(=O)OC1(C)C(=O)C=C2C=C(CCCC(=O)OC)OC=C2C1=O` (stereo not given) the Potency was “inactive”.
For `COC/C=C/C1=CC2=CC(=O)C(C)(OC(=O)c3cnc4ccccc4n3)C(=O)C2=CN1c1ccc(CO)cc1` (stereo not given), the Potency was “inactive”.
For `COC(=O)CCCC1=CC2=C(c3ccccc3)C(=O)C(C)(OC(=O)C3CCCC3)C(=O)C2=CN1C1CC1` (stereo not given), the Potency was “inactive”.
In the case of `CCOC(=O)NN=C1C[C@@H](O)[C@@H](O)[C@@H]2[C@H]3C(=O)N(C[C@@H]4CCCO4)C(=O)[C@@H]3CC[C@H]12`, the Potency is reported as “inactive”.
In the case of `COC(=O)N1C2CC3(C)C=C(C)OC1(C)C3c1ccccc12` (stereo not given), the Potency is reported as “inactive”.
For `CC1(OC(=O)CCc2ccccc2)C(=O)C=C2C=C(c3ccc(C#N)cc3)N(CCc3c[nH]c4ccccc34)C=C2C1=O` (stereo not given), the Potency was inconclusive [inhibitor, single point].
For `COC/C=C/C1=CC2=CC(=O)C(C)(OC(=O)c3cnc4ccccc4n3)C(=O)C2=CN1c1cccc(C#N)c1` (stereo not given), the Potency was “inactive”.
For `C=CCOC(=O)C(C(C)=O)[C@@H](NC(=O)OC)c1ccc2ccccc2c1` (stereo not given in full), the Potency was inconclusive [activator, partial curve, poor fit].

Experiment: qHTS for Inhibitors of Plasmodium falciparum (CP250) proliferation (AID 504320)
Conditions: P. falciparum CP250 in erythrocytes, SYBR Green DNA, 72 h; series mostly up to 6.7 µM
How it was run: as §1
With `COC/C=C/C1=CC2=CC(=O)C(C)(OC(=O)c3cnc4ccccc4n3)C(=O)C2=CN1CCCOC(C)C` (stereo not given) the Potency was inconclusive [activator].
With `CC1=CC[C@@H](C)O[C@@]2(C1)C(=O)N(Cc1ccc(Br)cc1)c1ccccc12` the Potency was “inactive”.
In the case of `CC(=O)OC[C@H]1O[C@H](C#Cc2ccc(F)cc2F)C=C[C@H]1OC(C)=O`, the Potency is reported as “inactive”.
With `C=CCC(Nc1ccc(OC)cc1)C(=O)OCC` (stereo not given) the Potency was “inactive”.
With `COc1ccc(N2C=C3C(=O)C(C)(OC(=O)CCc4ccccc4)C(=O)C=C3C=C2c2ccc(C#N)cc2)cc1` (stereo not given) the Potency was “inactive”.
With `CC(=O)C1=C(C)N(CC#C[Si](C)(C)C)C(=O)N(C(C)=O)C1c1ccccc1` (stereo not given) the Potency was inconclusive [inhibitor, partial curve, poor fit].
In the case of `O=C(NN=C1C[C@@H](O)[C@H](O)[C@H]2[C@@H]3C(=O)N(C[C@@H]4CCCO4)C(=O)[C@@H]3CC[C@H]12)OCc1ccccc1`, the Potency is reported as “inactive”.
In the case of `CC(=O)OC[C@H]1O[C@H](CC=NO[C@H](C)CN2CCCCc3nc(C)c(C)cc32)C=C[C@@H]1OC(C)=O`, the Potency is reported as inconclusive [inhibitor, partial curve, poor fit].
In the case of `COC(=O)N1C2CC(=O)O[C@H]3c4cc5c(cc4[C@]1(C)[C@@]3(Br)c1ccccc12)OCO5`, the Potency is reported as active: 1510 nM.
For `COCCN1C(=O)N[C@@H](c2cccc(F)c2)C(C(=O)OC)=C1C`, the Potency was “inactive”.
For `COc1ccc(COC(=O)NN=C2C[C@@H](O)[C@@H](O)[C@@H]3[C@H]4C(=O)N(C[C@@H]5CCCO5)C(=O)[C@@H]4CC[C@@H]23)cc1`, the Potency was “inactive”.
For `CCN1C(=O)NC(c2cccs2)C(C(C)=O)=C1C` (stereo not given), the Potency was “inactive”.
With `CC(=O)OC[C@H]1O[C@@H](ON=C2C[C@@H](O)[C@@H](O)[C@@H]3[C@H]4C(=O)N(Cc5ccccc5)C(=O)[C@@H]4CC[C@@H]23)[C@H](OC(C)=O)[C@@H](OC(C)=O)[C@H]1OC(C)=O` the Potency was “inactive”.
In the case of `COC(=O)C1=C(C)[C@@H](O)[C@@H](C)[C@](C)(c2cc(OC)c(C)c(OC)c2COc2ccccc2)O1`, the Potency is reported as inconclusive [inhibitor, single point].
With `COC(=O)NC(CCc1ccccc1)C(C(=O)OC)C(=O)OC` (stereo not given) the Potency was “inactive”.
In the case of `COCCN1C(=NCCc2cccnc2)NC(c2ccccc2)C(C(=O)OC)=C1C` (stereo not given), the Potency is reported as “inactive”.
In the case of `COC/C=C/C1=CC2=CC(=O)C(C)(OC(=O)c3cnc4ccccc4n3)C(=O)C2=CN1CCOC` (stereo not given), the Potency is reported as “inactive”.
In the case of `COc1ccc(-c2cnnc(CCCn3ccnc3-c3ccccc3)n2)cc1`, the Potency is reported as inconclusive [inhibitor, partial curve, poor fit].
In the case of `C[C@@H]1C=CCC(=O)N[C@@H](c2ccccc2)[C@H](C)C=CCC(=O)N[C@@H]1c1ccccc1`, the Potency is reported as “inactive”.
In the case of `COC(=O)C1=C(C(=O)OC)[C@@H]2N(C)c3ccccc3[C@@]23C[C@@H](C(=O)OC)N=C3N1`, the Potency is reported as “inactive”.
With `C=C[C@H](C)[C@](C)(O)c1ccccc1` the Potency was “inactive”.
For `CC[C@@H](C)CN1C(=O)N[C@@H](c2ccccc2)C(C(=O)OC)=C1C`, the Potency was inconclusive [inhibitor, partial curve, poor fit].
For `COC(=O)C[C@H]1c2ccccc2C2=C(C[C@@H](C)[C@H]3C(=O)NC(=O)[C@@H]23)N1C(=O)OC`, the Potency was inconclusive [activator].
For `C=CCOC(=O)N[C@@H](CC(C)C)C(C(=O)OC)=C(C)NCc1ccccc1`, the Potency was “inactive”.
In the case of `COC/C=C/C1=CC2=CC(=O)C(C)(OC(=O)c3cnc4ccccc4n3)C(=O)C2=CN1c1ccc(CO)cc1` (stereo not given), the Potency is reported as “inactive”.
With `CC=COC(=O)N[C@@H](c1ccccc1)[C@]1(C(=O)OC)CCCC1=O` the Potency was “inactive”.
In the case of `COC(=O)CCCC1=CC2=C(c3ccccc3)C(=O)C(C)(OC(=O)C3CCCC3)C(=O)C2=CN1C1CC1` (stereo not given), the Potency is reported as “inactive”.
For `CCOC(=O)NN=C1C[C@@H](O)[C@@H](O)[C@@H]2[C@H]3C(=O)N(C[C@@H]4CCCO4)C(=O)[C@@H]3CC[C@H]12`, the Potency was inconclusive [inhibitor, partial curve, poor fit].
With `COc1ccc(-c2nc3c(c4c2C[C@H](c2ccccc2)OC4)CN(S(=O)(=O)c2ccc4c(c2)OCCN4C)CC3)c(C)c1` the Potency was “inactive”.
In the case of `COC(=O)N1C2CC3(C)C=C(C)OC1(C)C3c1ccccc12` (stereo not given), the Potency is reported as “inactive”.
With `CC1(OC(=O)CCc2ccccc2)C(=O)C=C2C=C(c3ccc(C#N)cc3)N(CCc3c[nH]c4ccccc34)C=C2C1=O` (stereo not given) the Potency was “inactive”.
In the case of `COc1ccc(-c2nc(-c3ccccc3)oc2NC2CCCCC2)cc1`, the Potency is reported as “inactive”.
With `C[C@H]1CC[C@H]2C(=O)O[C@H](CO)CN2[C@H]1c1ccc(Br)cc1` the Potency was “inactive”.
For `C=C(CCN1C=C(C(C)=O)C(c2ccccc2)NC1=O)c1ccccc1` (stereo not given), the Potency was “inactive”.
For `COC/C=C/C1=CC2=CC(=O)C(C)(OC(=O)c3cnc4ccccc4n3)C(=O)C2=CN1c1cccc(C#N)c1` (stereo not given), the Potency was inconclusive [activator].
For `C=CCOC(=O)C(C(C)=O)[C@@H](NC(=O)OC)c1ccc2ccccc2c1` (stereo not given in full), the Potency was inconclusive [activator].
